Source: the supplement of paper PMC10369915
Some of the results follow. No stated cut-off is given here; in the data, active = 3.2 or more and inactive = the rest. Most of these values are background signal.

The binders below were run against SHP2 C-SH2 domain E139D (assay: enrichment score (SH2-bound / input frequency) (ratio); bacterial display of known human phosphotyrosine sites (pTyr-Var adds point mutants) read by sequencing; higher = stronger binding; tyrosines were phosphorylated by kinases first). Settings: peptide library: pTyr-Var.
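Further: displayed peptides selected on beads carrying the immobilized SH2 domain, with library peptides lacking any tyrosine serving as negative controls.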

Binder	enrichment score
QDTSRYTVCNL [BIRC3_Y245_S248C]	inactive: 0.664
VHLFAYDWISI [BEST1_Y227_G222V_YF]	inactive: 2.75
SRIWVYNHFRC [BRCA2_Y2621_W2626C_YF]	inactive: 1.36
FQLPFYNTVPS [BMPR1A_Y458_M460T_YF]	inactive: 1.6
LNECHYGALIG [BPGM_Y92_R90C]	inactive: 0.916
FDDDDYDTDFV [BLM_Y296]	inactive: 0.432
SAQHHYESLQT [BIN1_Y157_R154Q]	inactive: 0.995
ESPGLCGFLNV [BCR_Y910_Y910C]	inactive: 0.722
GHLFAYDWISI [BEST1_Y227_YF]	inactive: 2.41
GHLFAYNWISI [BEST1_Y227_D228N_YF]	inactive: 2.15
EYQLPYYNMVP [BMPR1A_Y457]	inactive: 3.09
PVKTPYSLKRW [BMPR2_Y979_R974P]	inactive: 1.59
WVFNHYRWFIW [BRCA2_Y2624_I2627F_YF]	inactive: 2.66
MAALSYVSEIG [BPIFB2_Y36_K31M]	inactive: 1.17
KEEEDYREENN [BMS1_Y651_K652R]	inactive: 0.416
EFQLPYFNTVP [BMPR1A_Y457_M460T_YF]	inactive: 0.918
YECKWYIPLTD [BCR_Y756_D752E]	inactive: 0.981
GHLYANDWISI [BEST1_Y227_Y227N]	active: 3.89
ESPGLYGFLNV [BCR_Y910]	inactive: 0.9

Each binder was assayed against SHP2 C-SH2 domain wild-type in the same assay as above. Settings: peptide library: pTyr-Var.

Binder	enrichment score
QDTSRYTVCNL [BIRC3_Y245_S248C]	inactive: 1.05
VHLFAYDWISI [BEST1_Y227_G222V_YF]	inactive: 2.49
SRIWVYNHFRC [BRCA2_Y2621_W2626C_YF]	inactive: 1.08
FQLPFYNTVPS [BMPR1A_Y458_M460T_YF]	inactive: 1.58
LNECHYGALIG [BPGM_Y92_R90C]	inactive: 1.05
FDDDDYDTDFV [BLM_Y296]	inactive: 0.545
SAQHHYESLQT [BIN1_Y157_R154Q]	inactive: 0.93
ESPGLCGFLNV [BCR_Y910_Y910C]	inactive: 1.08
GHLFAYDWISI [BEST1_Y227_YF]	inactive: 1.97
GHLFAYNWISI [BEST1_Y227_D228N_YF]	inactive: 1.94
EYQLPYYNMVP [BMPR1A_Y457]	inactive: 2.53
PVKTPYSLKRW [BMPR2_Y979_R974P]	inactive: 1.86
WVFNHYRWFIW [BRCA2_Y2624_I2627F_YF]	inactive: 3.06
MAALSYVSEIG [BPIFB2_Y36_K31M]	inactive: 1.07
KEEEDYREENN [BMS1_Y651_K652R]	inactive: 0.523
EFQLPYFNTVP [BMPR1A_Y457_M460T_YF]	inactive: 0.757
YECKWYIPLTD [BCR_Y756_D752E]	inactive: 1.26
GHLYANDWISI [BEST1_Y227_Y227N]	inactive: 3.06
ESPGLYGFLNV [BCR_Y910]	inactive: 0.875

Each binder was assayed against SHP2 N-SH2 domain L43F in the same assay as above. Settings: peptide library: pTyr-Var.

Binder	enrichment score
QDTSRYTVCNL [BIRC3_Y245_S248C]	inactive: 0.56
VHLFAYDWISI [BEST1_Y227_G222V_YF]	inactive: 2.45
SRIWVYNHFRC [BRCA2_Y2621_W2626C_YF]	inactive: 1.17
FQLPFYNTVPS [BMPR1A_Y458_M460T_YF]	inactive: 1.47
LNECHYGALIG [BPGM_Y92_R90C]	inactive: 1.05
FDDDDYDTDFV [BLM_Y296]	inactive: 0.415
SAQHHYESLQT [BIN1_Y157_R154Q]	inactive: 1.05
ESPGLCGFLNV [BCR_Y910_Y910C]	inactive: 0.807
GHLFAYDWISI [BEST1_Y227_YF]	inactive: 2.15
GHLFAYNWISI [BEST1_Y227_D228N_YF]	inactive: 1.72
EYQLPYYNMVP [BMPR1A_Y457]	inactive: 2.83
PVKTPYSLKRW [BMPR2_Y979_R974P]	inactive: 2.05
WVFNHYRWFIW [BRCA2_Y2624_I2627F_YF]	inactive: 2.42
MAALSYVSEIG [BPIFB2_Y36_K31M]	inactive: 1.13
KEEEDYREENN [BMS1_Y651_K652R]	inactive: 0.367
EFQLPYFNTVP [BMPR1A_Y457_M460T_YF]	inactive: 0.881
YECKWYIPLTD [BCR_Y756_D752E]	inactive: 1.16
GHLYANDWISI [BEST1_Y227_Y227N]	active: 3.62
ESPGLYGFLNV [BCR_Y910]	inactive: 0.806

What follows are binders tested against SHP2 N-SH2 domain T42A in the same assay as above. Settings: peptide library: pTyr-Var.

Binder	enrichment score
QDTSRYTVCNL [BIRC3_Y245_S248C]	inactive: 0.742
VHLFAYDWISI [BEST1_Y227_G222V_YF]	inactive: 2.41
SRIWVYNHFRC [BRCA2_Y2621_W2626C_YF]	inactive: 1.21
FQLPFYNTVPS [BMPR1A_Y458_M460T_YF]	inactive: 1.79
LNECHYGALIG [BPGM_Y92_R90C]	inactive: 0.772
FDDDDYDTDFV [BLM_Y296]	inactive: 0.432
SAQHHYESLQT [BIN1_Y157_R154Q]	inactive: 1.32
ESPGLCGFLNV [BCR_Y910_Y910C]	inactive: 0.808
GHLFAYDWISI [BEST1_Y227_YF]	inactive: 2.06
GHLFAYNWISI [BEST1_Y227_D228N_YF]	inactive: 1.76
EYQLPYYNMVP [BMPR1A_Y457]	inactive: 2.95
PVKTPYSLKRW [BMPR2_Y979_R974P]	inactive: 1.64
WVFNHYRWFIW [BRCA2_Y2624_I2627F_YF]	inactive: 2.03
MAALSYVSEIG [BPIFB2_Y36_K31M]	inactive: 1.16
KEEEDYREENN [BMS1_Y651_K652R]	inactive: 0.468
EFQLPYFNTVP [BMPR1A_Y457_M460T_YF]	inactive: 0.617
YECKWYIPLTD [BCR_Y756_D752E]	inactive: 0.827
GHLYANDWISI [BEST1_Y227_Y227N]	active: 11.2
ESPGLYGFLNV [BCR_Y910]	inactive: 0.827

These binders were tested against SHP2 N-SH2 domain T52S in the same assay as above. Settings: peptide library: pTyr-Var.

Binder	enrichment score
QDTSRYTVCNL [BIRC3_Y245_S248C]	inactive: 0.694
VHLFAYDWISI [BEST1_Y227_G222V_YF]	inactive: 2.32
SRIWVYNHFRC [BRCA2_Y2621_W2626C_YF]	inactive: 1.31
FQLPFYNTVPS [BMPR1A_Y458_M460T_YF]	inactive: 1.76
LNECHYGALIG [BPGM_Y92_R90C]	inactive: 0.889
FDDDDYDTDFV [BLM_Y296]	inactive: 0.491
SAQHHYESLQT [BIN1_Y157_R154Q]	inactive: 0.857
ESPGLCGFLNV [BCR_Y910_Y910C]	inactive: 0.895
GHLFAYDWISI [BEST1_Y227_YF]	inactive: 2.31
GHLFAYNWISI [BEST1_Y227_D228N_YF]	inactive: 1.79
EYQLPYYNMVP [BMPR1A_Y457]	inactive: 2.76
PVKTPYSLKRW [BMPR2_Y979_R974P]	inactive: 1.56
WVFNHYRWFIW [BRCA2_Y2624_I2627F_YF]	inactive: 2.48
MAALSYVSEIG [BPIFB2_Y36_K31M]	inactive: 1.09
KEEEDYREENN [BMS1_Y651_K652R]	inactive: 0.609
EFQLPYFNTVP [BMPR1A_Y457_M460T_YF]	inactive: 0.885
YECKWYIPLTD [BCR_Y756_D752E]	inactive: 0.915
GHLYANDWISI [BEST1_Y227_Y227N]	active: 3.74
ESPGLYGFLNV [BCR_Y910]	inactive: 0.767

These binders were tested against SHP2 N-SH2 domain wild-type in the same assay as above. Settings: peptide library: pTyr-Var.

Binder	enrichment score
QDTSRYTVCNL [BIRC3_Y245_S248C]	inactive: 1.32
VHLFAYDWISI [BEST1_Y227_G222V_YF]	inactive: 2.69
SRIWVYNHFRC [BRCA2_Y2621_W2626C_YF]	inactive: 1.37
FQLPFYNTVPS [BMPR1A_Y458_M460T_YF]	inactive: 1.5
LNECHYGALIG [BPGM_Y92_R90C]	inactive: 1.1
FDDDDYDTDFV [BLM_Y296]	inactive: 0.402
SAQHHYESLQT [BIN1_Y157_R154Q]	inactive: 0.821
ESPGLCGFLNV [BCR_Y910_Y910C]	inactive: 1.05
GHLFAYDWISI [BEST1_Y227_YF]	inactive: 2.12
GHLFAYNWISI [BEST1_Y227_D228N_YF]	inactive: 2.05
EYQLPYYNMVP [BMPR1A_Y457]	inactive: 2.46
PVKTPYSLKRW [BMPR2_Y979_R974P]	inactive: 1.85
WVFNHYRWFIW [BRCA2_Y2624_I2627F_YF]	inactive: 2.59
MAALSYVSEIG [BPIFB2_Y36_K31M]	inactive: 1.04
KEEEDYREENN [BMS1_Y651_K652R]	inactive: 1.11
EFQLPYFNTVP [BMPR1A_Y457_M460T_YF]	inactive: 0.822
YECKWYIPLTD [BCR_Y756_D752E]	inactive: 1.68
GHLYANDWISI [BEST1_Y227_Y227N]	inactive: 3.16
ESPGLYGFLNV [BCR_Y910]	inactive: 0.958
